The campaign covered roughly 50,000 compounds. About 800 (1.6%) showed an effect of 50% or more. The list shows a part of the results.
The compounds below were run against Bcl-2-like protein 10 (Homo sapiens) (UniProt Q9HD36) (assay: TR3 peptide-Bcl-B binding displacers, biochemical primary FP assay, phenotype converters (AID 1240;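 further: 0% = Bcl-B with tracer peptide and DMSO and 100% = tracer peptide lacking Bcl-B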)). Settings: GST-Bcl-B / FITC-TR3 peptide fluorescence polarization; stronger effect = higher value; compound at 3.75 mg/L.
Sequence of UniProt Q9HD36 (Q9HD36 whole entry, looked up): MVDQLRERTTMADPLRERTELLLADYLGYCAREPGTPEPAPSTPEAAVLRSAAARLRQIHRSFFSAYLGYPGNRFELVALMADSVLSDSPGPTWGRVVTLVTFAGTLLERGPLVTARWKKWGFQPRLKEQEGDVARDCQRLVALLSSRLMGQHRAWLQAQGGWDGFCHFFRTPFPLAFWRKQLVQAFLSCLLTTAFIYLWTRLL
Compound `Cc1ccc2nc(NC(=S)NC(=O)c3ccc(Cl)cc3)sc2c1` has a displacement of 15.2%.
`CSc1ccccc1NC(=O)c1nn2c(c1Br)NC(c1cccs1)CC2C(F)(F)F` (stereo not given) was tested, and the displacement was -1.1%.
Compound `CN(C)C(=O)COc1cc2oc(=O)c3c(c2cc1Cl)CCCC3` has a displacement of -7%.
Work on `CCOc1ccccc1NC(=O)c1c(-c2ccccc2)noc1C` yielded a displacement of -2.7%.
With `CN(C)c1ccc(/C=C2\SC(=S)N(C(Cc3ccccc3)C(=O)O)C2=O)cc1` (stereo not given) the displacement was 2.7%.
`CCCOC(=O)C1=C(C)NC2=C(C(=O)CC(C)(C)C2)C1c1ccc(F)c(F)c1` (stereo not given) was tested, and the displacement was -1.9%.
`Cc1cc(C)cc(NC(=O)/C=C/c2ccccc2)c1` was tested, and the displacement was 19%.
Compound `CCCCOC(=O)c1ccc(NC(=O)c2cccc(Cl)c2)cc1` has a displacement of 0.3%.
With `CCN(CC)c1ccc(N=Cc2cc(Cl)c(N)c(Cl)c2)cc1` the displacement was 0.6%.
For `O=C1c2ccc3c4c(ccc(c24)C(=O)N1c1ccc2c(c1)oc1ccccc12)CC3`, the displacement was -1.7%.
Compound `O=C(c1ccccc1Br)N1C(=O)c2ccccc2S1(=O)=O` has a displacement of -9.7%.
With `C#CCC(CC#C)(C(=O)OCC)C(=O)OCC` the displacement was -12%.
With `O=C(NC(=S)Nc1ccc(Br)cn1)c1ccco1` the displacement was 13.6%.
`O=C(N/N=C/c1ccccc1F)c1ccc(Cl)c(Cl)c1` was tested, and the displacement was 11.6%.
In the case of `COC(C(=O)NNC(=O)c1ccccc1Cl)c1ccccc1` (stereo not given), the displacement is reported as -6.6%.
For `CCOC(=O)Nc1ccc(S(=O)(=O)Nc2cc(C)nc(C)n2)cc1`, the displacement was -0.8%.
In the case of `Cc1ccccc1NC(=O)c1ccc(Br)o1`, the displacement is reported as -8.2%.
Compound `COc1ccc(S(=O)(=O)N(CC(=O)N2CCOCC2)c2ccc(C)cc2)cc1OC` has a displacement of 0%.
With `COc1ccc(OC)c(/C=C(/C#N)C(=O)Nc2ccc(Cl)cc2)c1` the displacement was 36.4%.
`COc1ccc(C(=O)N=Nc2c(O)n(CN3CCN(C)CC3)c3ccc(Br)cc23)cc1` gave a displacement of -1.1%.
Compound `Cc1nnc(SCC(=O)Nc2sc3c(c2C#N)CCCC3)[nH]c1=O` has a displacement of 5.4%.
`CCN(CC)c1ccc(C(=O)N2CCCCC2)cc1` gave a displacement of -7.2%.
Work on `O=C(N/N=C/c1ccc([N+](=O)[O-])o1)c1ccc(Cl)c(Cl)c1` yielded a displacement of 19%.
`CCOC(=O)C1=C(C)NC(=S)NC1c1ccccc1OC(F)F` (stereo not given) was tested, and the displacement was -13.5%.
With `O=C(/C=C/c1ccccc1)NC(=S)Nc1nc(-c2ccccc2)cs1` the displacement was 3.8%.
With `O=C(COc1ccc2ccccc2c1)N1CCN(C(=O)c2ccco2)CC1` the displacement was -12.5%.
`CC(C)CCNS(=O)(=O)c1ccc([N+](=O)[O-])cc1` showed a displacement of -3.5%.
Compound `COc1ccc(N2C(=O)CC(N3CCC(C)CC3)C2=O)cc1` (stereo not given) has a displacement of 0%.
Work on `N#CSCCCCOc1ccc(Br)cc1` yielded a displacement of -4%.
`CC(=O)c1ccc(NC(=O)c2ccc(N(Cc3ccccc3)S(C)(=O)=O)cc2)cc1` showed a displacement of -0.6%.
`COc1cccc(C2=NN(C(=O)c3ccc(C(C)(C)C)cc3)C(O)(C(F)(F)F)C2)c1` (stereo not given) was tested, and the displacement was -25.4%.
In the case of `Cc1cccc(-n2ncc3c(N4CCCC4)ncnc32)c1`, the displacement is reported as -1%.
Compound `COc1ccc(C2NC(=O)NC(C)=C2C(=O)Nc2cccc(C)c2)cc1OC` (stereo not given) has a displacement of 28.3%.
Compound `COc1cc(C2C3C(=O)N(Cc4ccccc4)C(=O)C3ON2c2ccccc2)ccc1O` (stereo not given) has a displacement of 13.6%.
For `Cc1cc(NC(=O)c2ccc3c(c2)C2C=CCC2C(c2ccc(F)cc2)N3)ccc1[N+](=O)[O-]` (stereo not given), the displacement was -5.8%.
`Oc1ccc(Br)cc1-c1nnc2ccc3ccccc3n12` was tested, and the displacement was 16.4%.
In the case of `O=C(CSc1nnnn1-c1ccccc1)N1CCCCC1`, the displacement is reported as 7.6%.
Work on `CNC(=O)C(=O)Nc1ccccc1OC` yielded a displacement of 6.5%.
`O=C(CC1CCCCC1)NC1CCCCC1` showed a displacement of -6.1%.
Compound `O=C(NCc1ccncc1)C(=O)Nc1nccs1` has a displacement of 8%.
`CCOc1cc(/C=C2\SC(=S)N(c3ccccc3)C2=O)cc(Br)c1O` showed a displacement of -40%.
Compound `COC(=O)CCC(=O)Oc1ccc(-c2ccccc2)cc1` has a displacement of 5.5%.
Work on `Cc1ccc(C2=C/C(=C\c3cccnc3)C(=O)O2)cc1` yielded a displacement of 39.5%.
In the case of `CC(=O)Nc1ccc(C2=N/C(=C/c3ccc(Br)cc3)C(=O)O2)cc1`, the displacement is reported as 12.9%.
For `Cc1ccc(C)c(N2C(=O)C3C4C=CC(C4=C4CCCC4)C3C2=O)c1` (stereo not given), the displacement was 3.8%.
`COc1ccc(CNC(=O)c2ccccc2[N+](=O)[O-])cc1` gave a displacement of -9%.
With `CCC(=O)N/C(N)=N\c1nc(OC)c2cc(C)ccc2n1` the displacement was 5.6%.
Work on `COc1ccc(/C=C/C(=O)Nc2ccccc2F)cc1OC` yielded a displacement of -18.7%.
For `COC(C(=O)N/N=C/c1cccc(C(F)(F)F)c1)c1ccccc1` (stereo not given), the displacement was 4.5%.
Compound `CC(=O)C1=C(O)C(=O)N(CC2CCCO2)C1c1ccc(C(C)C)cc1` (stereo not given) has a displacement of 2.1%.
In the case of `COc1ccccc1NC(=O)C1=C(C)NC(=O)NC1c1ccccc1Cl` (stereo not given), the displacement is reported as -0.9%.
`CCCCNCCCOc1ccccc1CC` was tested, and the displacement was 13.3%.
`CCCn1c(=O)c(C(=O)NNC(=O)COc2ccccc2)c(O)c2ccccc21` was tested, and the displacement was 9.3%.
Work on `COc1ccc2c(c1OC)C(=O)OC2Nc1ccc(F)c(Cl)c1` (stereo not given) yielded a displacement of -3.3%.
For `Cc1ccc(C(=O)O/N=C(\N)c2cccnc2)cc1[N+](=O)[O-]`, the displacement was 2.4%.
For `CCCC1=NN2C(=N)/C(=C/c3ccc(-c4ccc([N+](=O)[O-])cc4C)o3)C(=O)N=C2S1`, the displacement was 140%.
`O=c1c2c(nc3cc(-c4ccccc4)[nH]n13)CCS2` showed a displacement of -12.6%.
In the case of `N#C/C(=C/c1ccc(I)o1)c1ccc(Cl)cc1`, the displacement is reported as -24.1%.
In the case of `O=C1NC(=O)N(c2ccccc2Cl)C(=O)C1=Cc1ccc2c(c1)OCO2`, the displacement is reported as 7.3%.
Work on `CCN(CC)c1ccc(/C=C2/SC(=S)N(NC(=O)c3ccc(Cl)cc3)C2=O)cc1` yielded a displacement of -114%.
For `COc1ccc(S(=O)(=O)N(CCc2ccccc2)CC(=O)Nc2ccccc2OC)cc1`, the displacement was 11.2%.
With `Cc1cc2c(cc1C)CN(c1cccc(C(=O)NN)c1)C2` the displacement was -6%.
Compound `O=C1/C(=C\c2ccc(O)cc2)SC(=S)N1c1ccc(F)cc1` has a displacement of -12.5%.
Compound `COc1ccc(CN2C(=O)C3C(c4ccc(Cl)cc4)OC4(C(=O)c5ccccc5C4=O)C3C2=O)cc1` (stereo not given) has a displacement of -37.6%.
Compound `CCN1C(=O)c2cccc3c(NC(=O)c4ccc(Cl)s4)ccc1c23` has a displacement of 11.6%.
Compound `O=C(COc1ccccc1)Nc1ccc(O)c(-c2nc3ccccc3s2)c1` has a displacement of -0.4%.
Compound `CN1CCN(S(=O)(=O)c2ccc(C(C)(C)C)cc2)CC1` has a displacement of 0.6%.
`C/C(=C\C(=O)c1ccc(C)cc1)Nc1ccc(I)cc1` showed a displacement of 7.2%.
`NC1=NC(=O)/C(=C\c2ccc(-c3ccc([N+](=O)[O-])cc3)o2)S1` was tested, and the displacement was 3.2%.
`COc1ccc(C2=NN(C(=O)CCC(=O)O)C(c3ccccc3OC)C2)cc1` (stereo not given) showed a displacement of 11.9%.
`Cc1cc(=O)oc2c(C=Nc3c(C)n(C)n(-c4ccccc4)c3=O)c(O)ccc12` was tested, and the displacement was 38.5%.
`CN(C)c1ccc(C(=O)C(O)c2ccc(C(C)(C)C)cc2)cc1` (stereo not given) showed a displacement of 4.7%.
`COc1ccc(NC(=O)CSc2nc3ccccc3o2)c(OC)c1` gave a displacement of 13.5%.
Work on `Cc1ccc(N(CCCCN2C(=O)c3ccccc3C2=O)C(=O)c2cccc(C(F)(F)F)c2)cc1` yielded a displacement of 12.5%.
Compound `O=[N+]([O-])c1cccc(CSc2nc3ccccc3[nH]2)c1` has a displacement of -3.6%.
`CCOC(=O)c1c(N)sc(NC(=O)c2ccc(C)cc2C)c1C` gave a displacement of -9.6%.
`N#C/C(=C\c1ccc(Cl)cc1)c1nc(C2CC2)cs1` showed a displacement of -2.2%.
Work on `Cc1nc2cc(NCc3cc4ccccc4[nH]3)ccc2n1C` yielded a displacement of -1.6%.
`Cc1ccc(C)c(-c2nc3ccccc3c(C(=O)O)c2C)c1` was tested, and the displacement was 0%.
For `Cc1ccc(-c2noc(COc3ccc(C(C)(C)C)cc3)n2)cc1`, the displacement was 1.1%.
For `O=C(Nc1cc(F)c(F)cc1Cl)NC(c1ccccc1)c1ccccc1`, the displacement was -16.6%.
Work on `O=C(/C=C(\O)c1ccc(Br)cc1)C(F)(F)F` yielded a displacement of -6.5%.
For `O=S(=O)(c1cc(Cl)cc(Cl)c1O)c1cc(Cl)cc(Cl)c1O`, the displacement was 18.6%.
Compound `COC(OC)C12c3ccccc3C(c3ccccc31)C1C(=O)N(c3cccc(C)c3C)C(=O)C12` (stereo not given) has a displacement of -3.6%.
Compound `O=C(NCC1CCCO1)c1ccc(S(=O)(=O)N2CCCCC2)cc1` (stereo not given) has a displacement of -4.5%.
`C=CC[n+]1c(/C=C/c2ccc(N(C)C)cc2)ccc2ccccc21` showed a displacement of -2.5%.
`COc1cc(-c2nc3sc4c(c3c(=O)[nH]2)CCCC4)ccc1OCc1cccc(F)c1` showed a displacement of -16.2%.
In the case of `COc1ccc(NC(=O)COc2cc(C)c(Cl)c(C)c2)c(OC)c1`, the displacement is reported as -3.9%.
`CCN1C(=O)/C(=C\c2cc(Cl)c(OCc3ccccc3F)c(OC)c2)SC1=S` gave a displacement of 3.4%.
`Cc1nn(C(=O)c2nn(C)cc2[N+](=O)[O-])c(C)c1Br` showed a displacement of -19.5%.
For `COc1ccc(C2CC(=O)C3=C(C2)Nc2ccccc2NC3c2cccc(Br)c2)cc1OC` (stereo not given), the displacement was -3%.
Work on `COCCNC(=O)C(=O)Nc1ccc(C)cc1` yielded a displacement of 6.7%.
For `CCC(C(=O)Nc1ccccc1I)c1ccccc1` (stereo not given), the displacement was 7.8%.
`COc1ccc(Br)cc1C(=O)Nc1ccc(O)c(-c2nc3cc(C)c(C)cc3o2)c1` showed a displacement of 3.8%.
Work on `COc1ccc(C2(O)CN(c3ccccc3)C3=[N+]2CCCS3)cc1` (stereo not given) yielded a displacement of 10.1%.
`O=C(COC(=O)c1ccccc1C(F)(F)F)c1ccc(Br)cc1` gave a displacement of -12.2%.
`O=C(NNC(=O)c1ccccc1[N+](=O)[O-])c1ccc(NC(=O)c2ccccc2[N+](=O)[O-])cc1` was tested, and the displacement was 3.9%.
`CCc1cc(C)cc(OCCOc2cccc(/C=c3\sc4nc5ccccc5n4c3=O)c2)c1` showed a displacement of 14.6%.
For `Cc1nc(C(F)(F)F)nc(Nc2ccc(Br)cc2)c1C#N`, the displacement was -3.5%.
`Cc1ccc(C(=O)Nc2ccc(C(=O)/C=C/c3cccnc3)cc2)cc1` was tested, and the displacement was 3.8%.
`O=C(/C=C/c1cccc([N+](=O)[O-])c1)NCCN1CCOCC1` was tested, and the displacement was 9.7%.
`Cc1ccc(/C=C2\SC(=N)N(c3ccc(F)cc3)C2=O)cc1` was tested, and the displacement was 6.7%.
`O=C(O)c1cc(NC(=O)c2cccc(Oc3ccc([N+](=O)[O-])cc3)c2)cc(C(=O)O)c1` gave a displacement of 5.6%.
`CCOC(=O)Cn1nnc2ccccc21` was tested, and the displacement was -6%.
`COc1ccc(/C=C2\CCc3cc(OC)ccc3C2=O)cc1` gave a displacement of -4.8%.
`O=C(c1cccs1)N1N=C(c2ccccc2)CC1c1ccccc1` (stereo not given) showed a displacement of -4.3%.
`CCc1ccc(N2C(=O)NC(=O)/C(=C\c3cc(Cl)c(O)c(Cl)c3)C2=O)cc1` gave a displacement of -10.8%.
Compound `O=C(O)/C=C/c1c(F)c(F)c(F)c(F)c1F` has a displacement of 0.7%.
`Clc1ccc(CN2CCN(C3CCN(Cc4ccccc4)CC3)CC2)cc1` showed a displacement of -8%.
`COc1ccc(/C=N/N=C2c3ccccc3-c3ccccc32)c(OC)c1` showed a displacement of -4.4%.

Source: PubChem BioAssay AID1240 (Sanford-Burnham Center for Chemical Genomics, 2008)
